Data from patent publication US20260209325A1, “SELECTIVE AND POTENT INHIBITORY ANTIBODIES OF MYOSTATIN ACTIVATION” (SCHOLAR ROCK, INC., priority 2022, published 2026).

Columns and labels:
murine pro-myostatin = murine pro-myostatin (Mus musculus, UniProt O08689); test: Biacore 8k SPR binding affinity, murine pro-myostatin
Description: (§1) The Biacore™ 8k SPR system was utilized to evaluate the binding affinity of myostatin antibodies to biotinylated human, murine, and cyno pro-myostatin. Biotin CAPture kit and sensor chips (Cytiva) were utilized in these experiments to immobilize the various antigens, followed by flowing a range of concentrations of each of the test antibodies.

human pro-myostatin = human pro-myostatin (Homo sapiens, UniProt O14793); test: Biacore 8k SPR binding affinity, human pro-myostatin
Description: as §1

[1] = AC-SINS self-interaction (aggregation behavior); format: physicochemical; conditions: cutoff: shift of >5 nm in plasmon wavelength
Procedure: Developability profiles may be assessed by well-known parameters. […] In some embodiments, antibodies are tested for aggregation behavior by affinity capture self-interaction nanoparticle spectroscopy (AC-SINS). […] Typically, gold nanoparticles are coated with polyclonal antibodies that are specific for human monoclonal antibodies and the monoclonal antibodies are captured by the conjugates. The polyvalency of the monoclonal antibody conjugates amplifies the attractive self-interactions, i.e., aggregation between the adsorbed antibodies. This leads to reduced inter-particle separation distances and is detected by a change in color of the gold colloid solution, which may be quantified by a change in the wavelength of maximum absorbance (plasmon wavelength). Plasmon wavelength of 530 nm may be used as the reported value for unaggregated gold nanoparticles. Antibodies with a tendency to self-aggregate shift the plasmon wavelength toward the red end of the spectrum. In some embodiments, a shift of greater than 5 nm (i.e., >5 nm) in plasmon wavelength may be used as the cutoff indicative of self-interacting antibodies.
The antibodies were tested for aggregation behavior by affinity capture self-interaction nanoparticle spectroscopy (AC-SINS). Gold nanoparticles were coated with polyclonal antibodies that are specific for human monoclonal antibodies and the monoclonal antibodies are captured by the conjugates. The polyvalency of the monoclonal antibody conjugates amplifies the attractive self-interactions, i.e., aggregation between the adsorbed antibodies. This leads to reduced inter-particle separation distances and is detected by a change in color of the gold colloid solution, which was quantified by a change in the wavelength of maximum absorbance (plasmon wavelength). Plasmon wavelength of 530 nm was used as the reported value for unaggregated gold nanoparticles. Antibodies with a tendency to self-aggregate shift the plasmon wavelength toward the red end of the spectrum. A shift of greater than 5 nm (i.e., >5 nm) in plasmon wavelength was used as the cutoff indicative of self-interacting antibodies.

cyno pro-myostatin = cyno pro-myostatin (Macaca fascicularis, UniProt Q95J86); test: Biacore 8k SPR binding affinity, cyno pro-myostatin; set-up: species or system cynomolgus monkey
Description: as §1

B1: Ab108: anti-pro/latent myostatin antibody; CDR sequences in Table 2d (antibody)
heavy: EVQLVESGGGLVQPGGSLRLSCAASGSAFSSYGMSWVRQAPGKGLELVASINSNGGSTYYPDSVKGRFTISRDNAKNSLYLQMNSLRAEDTAVYYCARDLLVGFLQWSHYYGMDVWGQGTTVTVSSASTKGPSVFPLAPCSRSTSESTAALGCLVKDYFPEPVTVSWNSGALTSGVHTFPAVLQSSGLYSLSSVVTVPSSSLGTKTYTCNVDHKPSNTKVDKRV[human IgG4 Fc with S228P (EU numbers) left out]
light: DIVMTQSPLSLPVTPGEPASISCRSSQSLLHSSGHNFLHWYLQKPGQSPQLLIYEVSNRVSGVPDRFSGSGSGTDFTLKISRVEAEDVGVYYCMQQTQYPPTFGGGTKVEIKRTVAAPSVFIFPPSDEQLKSGTASVVCLLNNFYPREAKVQWKVDNALQSGNSQESVTEQDSKDSTYSLSSTLTLSKADYEKHKVYACEVTHQGLSSPVTKSFNRGEC
Ka (murine pro-myostatin): 8.42e+06 M⁻¹ s⁻¹
Kd (1/s) (murine pro-myostatin): 0.00183 s⁻¹
Ka (human pro-myostatin): 5.92e+06 M⁻¹ s⁻¹
Kd (1/s) (human pro-myostatin): 0.00105 s⁻¹
aggregation behavior by AC-SINS [1]: did not display aggregation behavior

B2: Ab104: anti-pro/latent myostatin antibody; CDR sequences in Table 2d (antibody)
heavy: EVQLVESGGGLVQPGGSLRLSCAASGSAFSSYGMSWVRQAPGKGLELVASINSNGGSTYYPDSVKGRFTISRDNAKNSLYLQMNSLRAEDTAVYYCARDLLVKFLSWSHYYGMDVWGQGTTVTVSSASTKGPSVFPLAPCSRSTSESTAALGCLVKDYFPEPVTVSWNSGALTSGVHTFPAVLQSSGLYSLSSVVTVPSSSLGTKTYTCNVDHKPSNTKVDKRV[human IgG4 Fc with S228P (EU numbers) left out]
light: DIVMTQSPLSLPVTPGEPASISCRSSQSLLHSSGHNFLHWYLQKPGQSPQLLIYEVSNRVSGVPDRFSGSGSGTDFTLKISRVEAEDVGVYYCMQQTQYPPTFGGGTKVEIKRTVAAPSVFIFPPSDEQLKSGTASVVCLLNNFYPREAKVQWKVDNALQSGNSQESVTEQDSKDSTYSLSSTLTLSKADYEKHKVYACEVTHQGLSSPVTKSFNRGEC
Ka (murine pro-myostatin): 3.58e+06 M⁻¹ s⁻¹
Kd (1/s) (murine pro-myostatin): 0.000518 s⁻¹
Ka (human pro-myostatin): 3.82e+06 M⁻¹ s⁻¹
Kd (1/s) (human pro-myostatin): 0.000381 s⁻¹
aggregation behavior by AC-SINS [1]: did not display aggregation behavior

B3: Ab107: anti-pro/latent myostatin antibody; CDR sequences in Table 2d (antibody)
heavy: EVQLVESGGGLVQPGGSLRLSCAASGSAFSSYGMSWVRQAPGKGLELVASINSNGGSTYYPDSVKGRFTISRDNAKNSLYLQMNSLRAEDTAVYYCARDQLVRFLEWSHYYGMDVWGQGTTVTVSSASTKGPSVFPLAPCSRSTSESTAALGCLVKDYFPEPVTVSWNSGALTSGVHTFPAVLQSSGLYSLSSVVTVPSSSLGTKTYTCNVDHKPSNTKVDKRV[human IgG4 Fc with S228P (EU numbers) left out]
light: DIVMTQSPLSLPVTPGEPASISCRSSQSLLHSSGHNFLHWYLQKPGQSPQLLIYAGSNRPSGVPDRFSGSGSGTDFTLKISRVEAEDVGVYYCAHATQLPHTFGGGTKVEIKRTVAAPSVFIFPPSDEQLKSGTASVVCLLNNFYPREAKVQWKVDNALQSGNSQESVTEQDSKDSTYSLSSTLTLSKADYEKHKVYACEVTHQGLSSPVTKSFNRGEC
Ka (murine pro-myostatin): 8.04e+06 M⁻¹ s⁻¹
Kd (1/s) (murine pro-myostatin): 0.000455 s⁻¹
Ka (cyno pro-myostatin): 5.85e+06 M⁻¹ s⁻¹
Kd (1/s) (cyno pro-myostatin): 0.000316 s⁻¹
Ka (human pro-myostatin): 5.34e+06 M⁻¹ s⁻¹
Kd (1/s) (human pro-myostatin): 0.000319 s⁻¹
aggregation behavior by AC-SINS [1]: did not display aggregation behavior

B4: Ab106: anti-pro/latent myostatin antibody; CDR sequences in Table 2d (antibody)
heavy: EVQLVESGGGLVQPGGSLRLSCAASGSAFSSYGMSWVRQAPGKGLELVASINSNGGSTYYPDSVKGRFTISRDNAKNSLYLQMNSLRAEDTAVYYCARDLLVRFLEWAGYYGMDVWGQGTTVTVSSASTKGPSVFPLAPCSRSTSESTAALGCLVKDYFPEPVTVSWNSGALTSGVHTFPAVLQSSGLYSLSSVVTVPSSSLGTKTYTCNVDHKPSNTKVDKRV[human IgG4 Fc with S228P (EU numbers) left out]
light: DIVMTQSPLSLPVTPGEPASISCRSSQSLLHSSGHNFLHWYLQKPGQSPQLLIYEVSNRVSGVPDRFSGSGSGTDFTLKISRVEAEDVGVYYCMQQTQYPPTFGGGTKVEIKRTVAAPSVFIFPPSDEQLKSGTASVVCLLNNFYPREAKVQWKVDNALQSGNSQESVTEQDSKDSTYSLSSTLTLSKADYEKHKVYACEVTHQGLSSPVTKSFNRGEC
Ka (murine pro-myostatin): 1.96e+06 M⁻¹ s⁻¹
Kd (1/s) (murine pro-myostatin): 0.000317 s⁻¹
Ka (human pro-myostatin): 2e+06 M⁻¹ s⁻¹
Kd (1/s) (human pro-myostatin): 0.000224 s⁻¹
aggregation behavior by AC-SINS [1]: did not display aggregation behavior

B5: Ab103: anti-pro/latent myostatin antibody; CDR sequences in Table 2d (antibody)
heavy: EVQLVESGGGLVQPGGSLRLSCAASGYTFSSYGMSWVRQAPGKGLELVASITGDAGRTYYPDSVKGRFTISRDNAKNSLYLQMNSLRAEDTAVYYCARDTLVRFLEWSHYYGMDVWGQGTTVTVSSASTKGPSVFPLAPCSRSTSESTAALGCLVKDYFPEPVTVSWNSGALTSGVHTFPAVLQSSGLYSLSSVVTVPSSSLGTKTYTCNVDHKPSNTKVDKRV[human IgG4 Fc with S228P (EU numbers) left out]
light: DIVMTQSPLSLPVTPGEPASISCRSSQSLLHSSGHNFLHWYLQKPGQSPQLLIYEVSNRVSGVPDRFSGSGSGTDFTLKISRVEAEDVGVYYCMQQTQYPPTFGGGTKVEIKRTVAAPSVFIFPPSDEQLKSGTASVVCLLNNFYPREAKVQWKVDNALQSGNSQESVTEQDSKDSTYSLSSTLTLSKADYEKHKVYACEVTHQGLSSPVTKSFNRGEC
Ka (murine pro-myostatin): 5.83e+06 M⁻¹ s⁻¹
Kd (1/s) (murine pro-myostatin): 0.00221 s⁻¹
Ka (cyno pro-myostatin): 6.09e+06 M⁻¹ s⁻¹
Kd (1/s) (cyno pro-myostatin): 0.00154 s⁻¹
Ka (human pro-myostatin): 5.78e+06 M⁻¹ s⁻¹
Kd (1/s) (human pro-myostatin): 0.00151 s⁻¹
aggregation behavior by AC-SINS [1]: did not display aggregation behavior

B6: Ab101: anti-pro/latent myostatin antibody; CDR sequences in Table 2d (antibody)
heavy: EVQLVESGGGLVQPGGSLRLSCAASGSAFSSYGMSWVRQAPGKGLELVASINSNGGSTYYPDSVKGRFTISRDNAKNSLYLQMNSLRAEDTAVYYCARDLLVRFLEWSHYYGMDVWGQGTTVTVSSASTKGPSVFPLAPCSRSTSESTAALGCLVKDYFPEPVTVSWNSGALTSGVHTFPAVLQSSGLYSLSSVVTVPSSSLGTKTYTCNVDHKPSNTKVDKRV[human IgG4 Fc with S228P (EU numbers) left out]
light: DIVMTQSPLSLPVTPGEPASISCRSSQSLLHSSGHNFLHWYLQKPGQSPQLLIYEVSNRVSGVPDRFSGSGSGTDFTLKISRVEAEDVGVYYCMQQTQYPPTFGGGTKVEIKRTVAAPSVFIFPPSDEQLKSGTASVVCLLNNFYPREAKVQWKVDNALQSGNSQESVTEQDSKDSTYSLSSTLTLSKADYEKHKVYACEVTHQGLSSPVTKSFNRGEC
Ka (murine pro-myostatin): 4.34e+06 M⁻¹ s⁻¹
Kd (1/s) (murine pro-myostatin): 0.00036 s⁻¹
Ka (cyno pro-myostatin): 4.84e+06 M⁻¹ s⁻¹
Kd (1/s) (cyno pro-myostatin): 0.000317 s⁻¹
Ka (human pro-myostatin): 4.37e+06 M⁻¹ s⁻¹
Kd (1/s) (human pro-myostatin): 0.000339 s⁻¹
aggregation behavior by AC-SINS [1]: did not display aggregation behavior
